Reference: PubChem BioAssay AID488969 (Vanderbilt High Throughput Screening Facility, 2010)
In all, about 110,000 compounds were measured (“z-score”: median about -0.1, highest 2% from about 2 on). Some of the results follow.

Each compound was assayed against Metabotropic glutamate receptor 8 (Rattus norvegicus) (UniProt P70579) (assay: rat mGluR8 modulators via GIRK flux, primary screen, cell-based, thallium flux, HTS (AID 488969)). Conditions: HEK293 rat mGluR8, GIRK (G protein-gated inwardly rectifying potassium channel) thallium flux, FluoZin2; at 10 µM; stronger effect = higher value; submaximal glutamate (EC20) added with thallium.
Sequence of UniProt P70579 (P70579 whole entry, looked up): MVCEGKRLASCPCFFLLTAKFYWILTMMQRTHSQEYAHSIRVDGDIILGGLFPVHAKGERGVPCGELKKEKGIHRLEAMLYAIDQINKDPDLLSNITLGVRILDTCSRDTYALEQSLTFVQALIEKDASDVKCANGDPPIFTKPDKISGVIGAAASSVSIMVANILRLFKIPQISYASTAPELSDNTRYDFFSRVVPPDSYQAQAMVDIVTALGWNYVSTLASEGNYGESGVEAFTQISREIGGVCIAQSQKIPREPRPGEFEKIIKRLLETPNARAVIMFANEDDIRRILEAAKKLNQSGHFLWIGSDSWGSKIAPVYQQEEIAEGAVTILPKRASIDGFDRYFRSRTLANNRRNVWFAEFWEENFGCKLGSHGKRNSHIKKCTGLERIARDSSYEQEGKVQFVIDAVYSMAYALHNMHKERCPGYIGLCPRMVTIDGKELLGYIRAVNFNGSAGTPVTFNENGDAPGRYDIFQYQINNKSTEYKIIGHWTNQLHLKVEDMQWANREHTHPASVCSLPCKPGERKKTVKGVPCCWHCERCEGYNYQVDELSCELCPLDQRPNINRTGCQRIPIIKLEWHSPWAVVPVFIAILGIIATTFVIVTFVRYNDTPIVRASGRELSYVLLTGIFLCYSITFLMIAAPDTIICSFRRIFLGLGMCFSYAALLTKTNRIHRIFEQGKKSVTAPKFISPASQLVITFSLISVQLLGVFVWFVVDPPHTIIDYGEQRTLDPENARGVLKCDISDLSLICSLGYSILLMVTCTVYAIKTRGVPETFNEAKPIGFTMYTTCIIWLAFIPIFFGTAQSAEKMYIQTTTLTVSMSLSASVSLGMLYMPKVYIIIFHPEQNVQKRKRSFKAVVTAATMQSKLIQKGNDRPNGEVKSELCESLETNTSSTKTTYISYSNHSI

| Structure (SMILES) | z-score |
| --- | --- |
| COC(=O)C1=C(NC(=O)c2ccc(C)cc2)CCS1 | -0.18 |
| CCC(C)N(C)Cc1cccc(C2(O)CCN(S(=O)(=O)c3ccc(F)cc3)CC2)c1 (stereo unspecified) | -0.276 |
| CC(C)N(C(=O)COC(=O)CNC(=O)c1ccc(Br)cc1)c1ccccc1 | -0.48 |
| COc1ccc(N2C(=O)CCC(C(=O)O)C2c2ccc(OC)c(OC)c2)cc1 (stereo unspecified) | -0.179 |
| C=CCNC(=O)C(=O)c1cccn1-c1ccsc1C(=O)OC | -0.198 |
| COc1ccccc1/C=C/C=N/n1c(-c2ccc(C)cc2)n[nH]c1=S | -0.218 |
| COCCN1C(=O)c2oc3cc(C)c(C)cc3c(=O)c2C1c1ccc(O)cc1 (stereo unspecified) | -1.06 |
| O=c1c2cnn(-c3ccccc3)c2ncn1Cc1cccnc1 | 0.48 |
| N#Cc1ccc(-c2ccc(OCC(=O)NCCc3ccccc3)cc2)cc1 | -0.352 |
| CCOC(=O)C(C)c1n[nH]c(=O)c2ccccc12 (stereo unspecified) | 0.11 |
| CC(C)C12CN3CC(C(C)C)(CN(C1)C3c1ccccc1)C2O (stereo unspecified) | -0.338 |
| COc1ccc(/C=C/C(=O)c2ccc(O)cc2)cc1COc1ccc(F)cc1 | -0.0504 |
| Nn1c(Cc2cccc3ccccc23)nnc1SC1CCOC1=O (stereo unspecified) | 0.259 |
| CCOC(=O)c1ccc(NC(=O)CCc2nc(-c3cccc(C)c3)no2)cc1 | 0.0774 |
| O=C(Cn1ncc2c1-c1ccccc1OC2)Nc1cccc(Cl)c1 | 1.41 |
| C=CCn1c(Cc2cccs2)nnc1SCC(=O)Nc1ccc(OC)cc1 | 0.00163 |

| Structure (SMILES) | z-score |
| --- | --- |
| Cc1onc(-c2c(F)cccc2Cl)c1C(=O)NC1CCSC1=O (stereo unspecified) | -0.0578 |
| COc1ccc(OCC(=O)N/N=C(/C)Cc2ccccc2)cc1 | -0.229 |
| Cc1cccc(C)c1-n1nnnc1S(=O)(=O)Cc1ccccc1Cl | -0.298 |
| COC(=O)c1ccc(NC(=O)c2cc3sccc3n2C)cc1 | -1.08 |
| O=[N+]([O-])c1ccc(O)c(-c2nc(-c3ccccc3)c(-c3cccs3)[nH]2)c1 | -0.0941 |
| C=CCNC(=O)c1ccc(C)c(Br)c1 | -0.134 |
| O=C(NC1CCCC1)C(c1cccs1)N(C(=O)c1ccno1)c1ccccc1 (stereo unspecified) | 0.711 |
| CC1(O)c2ccccc2C(=O)N1CCc1ccccc1F (stereo unspecified) | -0.1 |
| COc1ccc(-c2cc(C(F)(F)F)nc(SCC(N)=O)n2)cc1 | 0.362 |
| Cc1cc(SCC#N)n2nc(C)c(-c3ccc(Cl)cc3)c2n1 | 0.479 |
| CCOc1ccc(N2Cc3ncccc3C2=O)cc1 | -0.0683 |
| CCCC(C(=O)NCc1ccco1)N(C(=O)CNS(=O)(=O)c1ccc(Cl)cc1)C1CCCC1 (stereo unspecified) | 0.651 |
| O=C(Oc1ccc(Cl)cc1)N1CCCCC1 | 0.187 |
| Cc1cccc(NC(=S)NNC(=O)CCn2nc(C)c([N+](=O)[O-])c2C)c1 | 0.0146 |
| Cc1ccc(C2N(c3cccc(Cl)c3)C(=O)C3CCCN32)o1 (stereo unspecified) | -0.548 |
